Article PMC4336329 (PLoS ONE, 2015)
Among all 310,000 compounds or so, about 14,000 (4.5%) showed an effect of 50% or more. Effects have a minus sign here. The list shows a part of the results.

Target: human ether-à-go-go-related gene (hERG) potassium channel (human, UniProt Q12809)
Test: primary screen, population patch clamp on CHO cells stably expressing hERG
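Also: peak tail current of the secondary pulse compared with the same well before compound.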

human ether-à-go-go-related gene (hERG) potassium channel, sequence (Q12809 whole entry, looked up): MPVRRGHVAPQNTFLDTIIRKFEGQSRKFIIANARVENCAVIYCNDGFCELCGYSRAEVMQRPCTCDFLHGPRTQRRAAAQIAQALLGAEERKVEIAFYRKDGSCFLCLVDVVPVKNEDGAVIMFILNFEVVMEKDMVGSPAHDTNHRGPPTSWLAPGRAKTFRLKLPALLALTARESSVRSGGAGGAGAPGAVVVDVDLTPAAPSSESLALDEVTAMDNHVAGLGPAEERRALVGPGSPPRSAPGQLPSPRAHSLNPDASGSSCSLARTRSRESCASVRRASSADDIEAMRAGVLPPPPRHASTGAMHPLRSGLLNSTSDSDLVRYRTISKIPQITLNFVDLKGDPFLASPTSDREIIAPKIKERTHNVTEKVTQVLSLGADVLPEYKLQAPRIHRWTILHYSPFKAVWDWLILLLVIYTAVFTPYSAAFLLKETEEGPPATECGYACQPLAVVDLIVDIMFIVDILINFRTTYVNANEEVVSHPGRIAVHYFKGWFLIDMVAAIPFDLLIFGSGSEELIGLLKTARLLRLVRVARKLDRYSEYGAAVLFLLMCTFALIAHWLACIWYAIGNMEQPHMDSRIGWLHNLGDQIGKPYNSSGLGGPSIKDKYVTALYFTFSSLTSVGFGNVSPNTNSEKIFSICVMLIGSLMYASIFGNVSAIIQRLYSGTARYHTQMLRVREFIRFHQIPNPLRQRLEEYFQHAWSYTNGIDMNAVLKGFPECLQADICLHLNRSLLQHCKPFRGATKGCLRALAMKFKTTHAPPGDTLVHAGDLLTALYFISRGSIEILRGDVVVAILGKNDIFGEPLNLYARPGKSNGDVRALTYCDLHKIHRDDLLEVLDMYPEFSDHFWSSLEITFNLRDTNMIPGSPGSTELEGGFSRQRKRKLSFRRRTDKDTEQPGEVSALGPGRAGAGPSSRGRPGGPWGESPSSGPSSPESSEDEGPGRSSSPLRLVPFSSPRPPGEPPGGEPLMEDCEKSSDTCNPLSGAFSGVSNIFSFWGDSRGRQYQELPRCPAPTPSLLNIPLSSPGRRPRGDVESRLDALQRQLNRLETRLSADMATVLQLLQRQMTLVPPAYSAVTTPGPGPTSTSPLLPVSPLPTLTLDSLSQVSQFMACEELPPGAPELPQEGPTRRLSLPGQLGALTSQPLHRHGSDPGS

SMILES	hERG current change (%, negative = inhibition) at 10uM [%]
Cc1ccccc1-n1ccnc1SCC(=O)O	20.9
CCc1cc2c(-c3ccccc3)cc(=O)oc2cc1OC(C)C(C)=O (stereo not drawn)	1.83
Cc1ccc(C)c(S(=O)(=O)NC(CCC(N)=O)C(=O)O)c1 (stereo not drawn)	0.0397
O=C1NC(=O)/C(=C/c2ccc(N3CCOCC3)o2)N1	18.2
COc1ccc(/C=N/NC(=O)c2ccncc2)cc1OC	15.5
C(=C\c1ccco1)/c1nc2ccccc2[nH]1	8.91
CCCCN(CCCC)CCCNC(=O)C1CC(c2cc(C(F)(F)F)cc(C(F)(F)F)c2)=NO1 (stereo not drawn)	3.86
C=CCNC(=O)/C(=C/c1ccccc1OCC)NC(=O)c1ccccc1	2.63
CCN(CC(=O)Nc1ccc2c(c1)OCCO2)S(=O)(=O)c1ccc(F)cc1	0.876
O=C(NCc1ccccc1)C1=C[C@@H](c2ccc(Br)cc2)C[C@@H](OCCCCO)O1	-36.8
COc1ccc(NC(=O)C2CCCN2S(=O)(=O)c2ccc(C)cc2)cc1 (stereo not drawn)	-7.55
CC(NC(=O)NCCCn1ccnc1)(C(F)(F)F)C(F)(F)F	20
CCc1ccccc1NC(=O)C1CCCN1S(=O)(=O)c1ccc2c(c1)n(C)c(=O)c(=O)n2C (stereo not drawn)	-3.91
COC(=O)c1ccc(NC(=O)CSc2nc3ccccc3c(=O)[nH]2)cc1	-6.31
C=CCO/N=C/C1C(=O)CC(C)(C)CC1=O	10.9
O=C(CN1CCN(c2ccc(C(F)(F)F)cn2)CC1)NCc1ccc2c(c1)OCO2	-65.3
O=C(CSc1nc2ccccc2s1)NNC(=S)Nc1ccc(Br)cc1	15.8
CC(C)CC(C(=O)OCC(=O)Nc1ncc(Cl)cc1Cl)N1C(=O)c2ccccc2C1=O (stereo not drawn)	-17.9
Cc1cc(SCC(=O)N/N=C/c2ccco2)nc2ccccc12	-1.74
CCN(CC)CCCN=Cc1c(O)n(-c2cccc(C)c2C)c(=O)[nH]c1=O	-10.9
Cc1cccc(C)c1NC(=O)C1CCCN1S(=O)(=O)c1ccc2c(c1)n(C)c(=O)c(=O)n2C (stereo not drawn)	9.71
COc1ccc(S(=O)(=O)Nc2ccc3oc4ncccc4c(=O)c3c2)cc1OC	11.3

SMILES	hERG current change (%, negative = inhibition) at 10uM [%]
O=C(CSc1cccc(C(F)(F)F)c1)NC(=O)c1ccccc1	12.8
O=C(O)CC(c1ccccc1)n1cnnn1 (stereo not drawn)	0.93
COc1ccc(OCC(=O)N/N=C(\C)c2ccc(OC)cc2)cc1	-9.1
COc1ccc(/C=N\NC(=O)c2ccccc2)cc1COc1ccc(F)cc1	-0.876
O=C(NC1CCCC1)c1ccc(CN2CCOCC2)cc1	0.596
COc1ccc(Cl)cc1S(=O)(=O)N1CCN(C(=O)c2ccco2)CC1	-13.6
CCn1cc(C(=O)O)c(=O)c2cc(F)c(N3CCN(C(=O)Nc4ccccc4)CC3)cc21	4.51
CCCCCCCCCC(=O)Nc1cccnc1	-8.54
CCOc1ccc(NC(=O)CN2C(=O)CSC2=O)cc1	24.1
Cc1ccc(N2Cc3ccccc3OC(C)C2=O)cc1 (stereo not drawn)	1.95
COc1ccc(C(=O)NCc2ccncc2)cc1S(=O)(=O)N1CCOCC1	2.47
C/C(CC(=O)Nc1cccc(C(F)(F)F)c1)=N/NC(=O)C(=O)NCCO	26.5
O=C1/C(=C/c2ccncc2)SC(=S)N1N1CCOCC1	12.2
O=S(=O)(Nc1ccc(Br)cn1)c1ccc2ccccc2c1	35.6
COc1ccccc1-c1ccc(Nc2ccc(C(=O)N3CCOCC3)cc2)nn1	-20.1
COc1ccc(O)c(-c2[nH]ncc2C(=O)c2ccccc2C)c1	-8.46
COC(=O)c1[nH]c2ccc(C)cc2c1NC(=O)Nc1ccccc1OC	-0.737
CC(C)(C)c1ccc(C(=O)N/C(=C\c2cccs2)C(=O)NCc2ccco2)cc1	-0.0534
Cc1nn(C)cc1CN(C)Cc1c(C(=O)N(C)Cc2ccccc2)nc2ccccn12	-17.5
O=C(CCNC(=O)c1ccccc1Cl)Nc1nccs1	12.4
O=C(C1CCCO1)N1CCN(C(=S)Nc2ccc(Cl)cc2)CC1 (stereo not drawn)	-27.7
CCOC(=O)/C(C#N)=C1/SC(CC)C(=O)N1c1ccc(Br)cc1 (stereo not drawn)	-31.5

SMILES	hERG current change (%, negative = inhibition) at 10uM [%]
COc1ccc(NC(=O)CSCC(=O)Nc2cccc(S(=O)(=O)N3CCCCCC3)c2)cc1	-25.6
COc1cccc(N2CC(O)Cn3c2nc2c3c(=O)n(CCCc3ccccc3)c(=O)n2C)c1 (stereo not drawn)	-13.3
Nc1ccc(C(=O)c2cccs2)cn1	16.1
COc1ccccc1-n1c(O)c(/C=N/NC(=S)Nc2ccccc2)c(=O)[nH]c1=S	14.8
COC(=O)Cc1coc2cc(OC)ccc12	11.9
CN(C)c1ccc(/C=N/NC(=O)COc2ccccc2)cc1	-20.9
Cc1cc(C)cc(NC(=S)Nc2ccc3cn[nH]c3c2)c1	-6.1
COc1cc(/C=C2\SC(=Nc3ccccc3)N(CCc3c[nH]c4ccccc34)C2=O)ccc1OC(C)C(=O)O (stereo not drawn)	23.1
CCCCC#Cc1ccc(C(=O)NNC(=O)Nc2cc(Cl)cc(Cl)c2)o1	12.7
CCOc1ccc(NC(=O)/C(=C\c2ccc(OC(C)=O)c(OC)c2)NC(C)=O)cc1	11.8
O=C(N/N=C/c1ccco1)C(O)C(O)C(=O)N/N=C/c1ccco1 (stereo not drawn)	18.3
O=C(CN1C(=O)CCS(=O)(=O)c2ccccc21)Nc1cccc(Cl)c1	-11.3
CC(C)(C)c1ccc(OCc2ccc(C(=O)N3CCOCC3)o2)cc1	-37.1
Cc1c(C(=O)NC2CCOC2)oc2c(F)cccc12 (stereo not drawn)	30.1
CCCN(CCC)Cc1c(C(=O)N/N=C/c2ccncc2)nnn1-c1nonc1N	-64.1
Cc1c(CN(C)C(=O)c2ccc(Br)o2)cnn1C	-7.89
COc1ccc(S(=O)(=O)N2CC(=O)Nc3ccccc32)cc1F	18.2
Cc1ccccc1-n1c(O)c(/C=N/N2CCOCC2)c(=O)[nH]c1=S	7.14
Cc1ccc2nc(NC(=O)C3CCN(S(=O)(=O)c4cccnc4)CC3)sc2c1	-44.1
CCOc1cnc(-c2c(-c3c(F)cccc3Cl)noc2C)o1	-13.2
COC(=O)c1cc(NS(=O)(=O)c2ccc(OC)c(OC)c2)ccc1Cl	-18.4
CCC(C)[C@H](NC(=O)[C@@H]1CSC2c3ccccc3C(=O)N21)C(=O)NCc1ccco1 (stereo partly drawn)	9.18

SMILES	hERG current change (%, negative = inhibition) at 10uM [%]
O=C(CN1C(=O)C2CC=C(Cl)CC2C1=O)Nc1ccc(C(=O)O)cc1 (stereo not drawn)	3.39
Cc1onc(C(=O)NN)c1-c1csc(COc2ccccc2)n1	1.54
C/C(Cc1ccccc1)=N\NC(=O)CNC(=O)c1ccc(C(C)(C)C)cc1	-6.48
COCc1cc(C)nc(SCC(=O)Nc2cccc3cccnc23)c1C#N	10.1
COc1cccc(CN(C)C(=O)/C=C/c2ccc(S(=O)(=O)N3CCCCCC3)cc2)c1	-7.36
CN(c1ccccc1)S(=O)(=O)c1ccc(NC(=O)c2ccc(F)cc2)cc1	-12.5
COc1cc(/C=C2\C(=O)NN(c3ccc(C)cc3)C2=O)cc([N+](=O)[O-])c1O	23.8
O=C(Nc1ccc2c(c1)OCCO2)c1oc2ccccc2c1NC(=O)C1CC1	13.6
O=C1CCN(Cc2nc(-c3ccc(Cl)cc3)no2)CCN1	-14.4
Cc1ccc(S(=O)(=O)NC(CC(C)C)C(=O)N2CCCC2)cc1 (stereo not drawn)	1.5
Cc1ccc(NCC(=O)N/N=C/c2cccc(Oc3ccccc3)c2)cc1	0.288
FC(F)(F)c1cccc(CNC2c3ccccc3-c3ccccc32)c1.O=C(O)C(=O)O	20.4
Cc1c(C(=O)N/N=C/c2ccc(-c3ccccc3[N+](=O)[O-])o2)sc(N)c1C#N	12.1
COc1ccc(/C=C(\C#N)C(=O)OCC(=O)NC(C)c2ccccc2)cc1 (stereo not drawn)	-0.608
Cc1csc(NC(=O)Cc2coc3cc(C)c(C(C)C)cc23)n1	7.87
CCN(CC)S(=O)(=O)c1ccc2c(c1)nc(SCc1nc3ccsc3c(=O)[nH]1)n2CC	-30.8
CSc1nc2c(c(=O)[nH]c(=O)n2C)n1C/C=C(\C)Cl	-27.5
COCCNC(=O)c1cccc(OC2CCN(Cc3ccc(C(=O)OC)cc3)CC2)c1	-40.5
CC1CCCC(C)N1C(=O)CSc1nc(N)cc(N)n1 (stereo not drawn)	-0.387
O=P(Cc1ccccc1)(c1ccccc1)c1ccccc1	6.03
CCCc1cc(NCCCn2ccnc2)n2nc(C)c(-c3ccccc3)c2n1	-74.9
